Test results taken from the supplement of paper PMC3334620.
The full ranking holds about 33,000 sequences; the median of “E-score (-0.5 to 0.5)” is about -0.013, and the highest 2% start at about 0.3. This is one part of the list.

Biological target: T1, Msn1 (UniProt P22148)
T1 sequence: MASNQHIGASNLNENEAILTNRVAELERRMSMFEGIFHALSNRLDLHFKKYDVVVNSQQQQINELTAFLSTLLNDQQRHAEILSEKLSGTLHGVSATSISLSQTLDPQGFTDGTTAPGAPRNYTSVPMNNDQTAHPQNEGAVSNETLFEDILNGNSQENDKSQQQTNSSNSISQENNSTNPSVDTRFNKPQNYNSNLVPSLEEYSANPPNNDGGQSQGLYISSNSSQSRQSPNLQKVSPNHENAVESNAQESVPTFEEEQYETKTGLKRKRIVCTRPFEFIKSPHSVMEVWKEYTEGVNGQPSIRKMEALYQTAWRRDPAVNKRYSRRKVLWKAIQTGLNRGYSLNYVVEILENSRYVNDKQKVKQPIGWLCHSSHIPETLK
Test: PBM E-score (8-mer binding enrichment) (E-score (-0.5 to 0.5)); higher = stronger / more preferred TF binding; most listed sequences are background and not binding sites
Details: protein concentration: 200 nM; construct: GST-full length
Outline: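 Full-length yeast transcription factors or their DNA-binding domains, GST-tagged and expressed with PURExpress, were applied at about 100-200 nM to universal all-10-mer Agilent arrays. These arrays had been made double-stranded by primer extension on fresh or once-stripped slides. Detection used fluorescent anti-GST, normalisation used masliner, and E-scores for ungapped eight-base words pooled with reverse complements came from the Universal PBM Analysis Suite.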

| Sequence | PBM E-score |
| --- | --- |
| GAAGCATA | -0.171 |
| GCTATTTA | 0.0605 |
| ATGACGGA | 0.0931 |
| CGCGTTCC | -0.0769 |
| ATTCGACC | -0.0378 |
| TGTAATAA | 0.0141 |
| CTGATGAA | -0.0521 |
| AACCTGTC | 0.119 |
| ATAGCCAT | -0.0927 |
| AGTTGGGA | 0.0253 |
| GAGTGAGA | -0.113 |
| ATAGCTCG | -0.0341 |
| CTACCAGA | 0.0598 |
| ACGACACA | 0.172 |
| CGCAGCCA | -0.171 |
| ATGCGTAC | 0.161 |
| TCACAAGA | -0.0355 |
| CGCCGAAC | 0.14 |
| GTTTGCGA | 0.192 |
| CAAGGTGA | 0.0693 |
| ATAACCGA | 0.0218 |
| GCAGTGCC | -0.3 |
| ATATGTCA | 0.401 |
| CGGCAGAA | -0.0946 |
| GGTCACGA | 0.0015 |

| Sequence | PBM E-score |
| --- | --- |
| TGGAACCA | 0.0913 |
| AAACGATT | 0.15 |
| CAGCGAGG | -0.0858 |
| GCATCTGA | -0.352 |
| CAAGTAAG | 0.0617 |
| ACGAACCA | 0.232 |
| CCATTTGC | 0.101 |
| AGATTCCT | -0.0666 |
| GCCTATAC | -0.109 |
| CCATACTC | 0.00131 |
| CATTTGCA | 0.0736 |
| AAGTTGAA | 0.00886 |
| AGAACCTA | -0.101 |
| ATGTCTCG | 0.333 |
| ACCATCTA | -0.171 |
| GCCTATGA | -0.107 |
| AGTTCAAG | 0.154 |
| AGCGCGCA | 0.171 |
| AATCCCTC | -0.126 |
| CGAGCTTC | 0.142 |
| AATTGAAC | 0.0221 |
| GAGCCCCA | -0.226 |
| AGCGGCAA | -0.114 |
| ACTATAGA | 0.0421 |
| ACCCCTGG | -0.224 |

| Sequence | PBM E-score |
| --- | --- |
| CCATACAG | -0.107 |
| GTCACGCA | 0.107 |
| ACCACCGG | -0.197 |
| CACCACTC | -0.0904 |
| CAGCAAGC | -0.129 |
| ACTCACTC | 0.0229 |
| AATCCAAT | -0.0132 |
| GCCATAAA | 0.0477 |
| GGTAAACC | -0.1 |
| CCCAAGAA | -0.00975 |
| GTTATAAC | -0.0383 |
| ATAACTCG | 0.0772 |
| GATGGATA | 0.00702 |
| ACCTTACT | 0.00176 |
| TAAGGCGA | -0.0721 |
| AACAGAGT | 0.128 |
| GTACGTAA | 0.132 |
| AATGCGAA | 0.0496 |
| AAGAAAAA | 0.0635 |
| ATGACCTG | 0.0774 |
| GCGCTGAA | -0.222 |
| CCTCAATA | -0.0793 |
| CTACTGAG | -0.0811 |
| TCCAAAGA | 0.207 |
| ATTACTGA | -0.0356 |

| Sequence | PBM E-score |
| --- | --- |
| ACGCACCG | 0.029 |
| CGTTGCGA | -0.0915 |
| GGACTACC | -0.292 |
| ACGCCCAC | -0.114 |
| AAGATGTG | 0.0907 |
| GGCGTCTA | -0.23 |
| TTAGACAA | 0.394 |
| GGTTGTGA | 0.031 |
| TATCGTGA | -0.0106 |
| AAACACCT | 0.0598 |
| AGGTGTAC | 0.00937 |
| AGTTCCAT | 0.0691 |
| GAGTACCA | 0.0166 |
| CCTGCTAG | -0.0964 |
| AAGGATGC | -0.132 |
| AGGCATTC | -0.284 |
| ACATCTCG | 0.137 |
| ATGCGGTC | 0.116 |
| AATGAGTG | -0.0537 |
| CTGATCGC | -0.104 |
| CCATGCGA | 0.108 |
| ATCACTAA | -0.0338 |
| CCCGCCCC | -0.12 |
| AAGAATCC | -0.0215 |
| ACTATGCA | 0.0563 |

| Sequence | PBM E-score |
| --- | --- |
| TAGCTTAA | 0.0136 |
| GAAGCGCC | 0.0782 |
| TAATATAA | 0.268 |
| GACGCAAA | -0.0204 |
| GCTGACTA | -0.233 |
| TAATGCGA | 0.164 |
| CTTTCACC | 0.0806 |
| CGCAGCTA | -0.132 |
| ATATACCG | 0.139 |
| AGTACACC | 0.162 |
| ACAGCTTG | 0.00925 |
| ACTCCACT | -0.098 |
| CTGCCAGA | -0.203 |
| ACCGTCCG | -0.0299 |
| CCACTCTA | -0.0584 |
| GACACTCA | -0.0259 |
| AATTTTCA | 0.012 |
| CTGCTGGC | -0.19 |
| AAATATTT | 0.292 |
| CACACGCA | -0.14 |
| CACACCGG | -0.082 |
| GGTAACAC | 0.0375 |
| CAGTGGTC | -0.138 |
| CCGGTGCG | -0.00399 |
| GGTCCTGA | 0.0385 |

| Sequence | PBM E-score |
| --- | --- |
| CAGTCACG | -0.198 |
| CCTTATAC | 0.0669 |
| CCTGGTAG | -0.248 |
| CAAACCAG | -0.056 |
| CCCGAACC | -0.227 |
| CCTAAGCC | -0.242 |
| AGTCTCTC | -0.121 |
| GTCTCGAA | 0.156 |
| AAACAATA | 0.237 |
| ATTGGCAG | -0.152 |
| TATCTTGA | -0.103 |
| CAGCAAAG | 0.118 |
| ACGCTGCC | -0.175 |
| CAAACACG | 0.0735 |
| GACTAGAC | -0.0357 |
| GCCGTTCC | -0.109 |
| TGCGCTAA | 0.111 |
| ACGTGCAA | 0.0425 |
| GTTACGAA | 0.0416 |
| GAAACCAC | -0.155 |
| CAGCCCGC | -0.259 |
| AAATTCTT | 0.0507 |
| TACAAGGA | 0.197 |
| GGCTCCTA | -0.319 |
| CTTCACCC | 0.103 |

| Sequence | PBM E-score |
| --- | --- |
| AATCCGGT | 0.169 |
| CAGGGGAC | -0.125 |
| CGATGGCG | -0.102 |
| TATCTGCA | -0.052 |
| ACCTCCCG | -0.299 |
| CTTGAACA | -0.0163 |
| CAAGAGCC | 0.0197 |
| AAGCCGGA | 0.131 |
| AACGTCGC | 0.096 |
| CTGTAAGC | 0.0563 |
| CAAGATCG | 0.0775 |
| CTGTGGAA | -0.151 |
| GGTGCATA | -0.167 |
| CACTGGGC | -0.155 |
| GCTAATCC | -0.0986 |
| ATGTAATA | 0.0505 |
| GCGGACCA | 0.0483 |
| TTGAGAAA | 0.083 |
| GAGTCACA | -0.0411 |
| ACACCGGT | 0.0772 |
| ACATGGAA | 0.216 |
| CCACAACA | 0.0856 |
